Assay results published in PubChem BioAssay AID588855 (National Center for Advancing Translational Sciences (NCATS), 2011).
Among all 410,000 compounds or so, about 5,000 (1.2%) were called active. The inconclusive results got no clear call from the source; some entries with a clear call stand among them for comparison. Calls follow the shape of the dose curve; as a rule, active = well fitted inhibition curve with a large enough effect; inconclusive = small, poorly fitted or top-dose-only effect; inactive = no such curve, though single readings can be large or run the other way. Where the call is inconclusive, the potency comes from a doubtful curve fit.

Assay: qHTS for Inhibitors of TGF-b; also: nearly all actives have a fitted effect of over 65% in size
Conditions: HepG2 CAGA-GFP TGF-b/SMAD3 reporter, GFP fluorescence, 18 h, TGF-beta stimulated, 500 pg/mL final; series mostly up to 46.1 µM; activity, negative = inhibition: at the top concentration
Outline: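 First, reporter cells (HEPG2 CAGA-GFP) rested 2 h at 37 degrees C. Next, compounds were pinned in and TGF-beta added to 500 pg/mL final. After 18 h, GFP was imaged per cell and summed per well.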
% is scaled to controls: 0 for no effect and ±100 for the full control effect; potency is read from the fitted curve at half-maximal effect; tags tell the direction and shape of the fitted curve.

SMILES | activity, negative = inhibition | Potency
CCN(CC)c1ccc(/C=C(\C#N)C(=O)NCc2ccccc2)cc1 | inactive: 16.3% | –
CC(C)Cc1nc(N2CCN(C(=O)c3ccccc3)CC2)c(C#N)c2c1CCC2 | – | inconclusive: 22.4 µM [inhibitor, single point]
CC(=O)Nc1cc(C(=O)NCc2ccc(F)cc2Cl)ccc1Sc1ccc(Cl)cc1 | inactive: 0% | –
CC(C)(C)NC(=O)c1cccc(NC(=O)CSc2ccc(Cl)cc2)c1 | – | inconclusive: 10 µM [inhibitor, partial curve, poor fit]
COc1ccc(CCNc2nc(C)cc(C)c2C#N)cc1OC | inactive: -10.1% | –
Cc1cc(/C=C/c2nc3ccccc3s2)ccc1N(C)C | – | inconclusive: 0.708 µM [inhibitor, full curve, poor fit]
O=C(NNC1=Nc2cccc3cccc1c23)c1ccccc1Br | – | inconclusive: 35.5 µM [inhibitor, single point]
CC(OC(=O)C1CC(=O)N(Cc2ccco2)C1)C(=O)Nc1ccccc1[N+](=O)[O-] (stereo unspecified) | inactive: 10.3% | –
COC(=O)c1cc2oc(C)cc2n1CC(=O)Nc1ccc(C)cc1C | inactive: 23.8% | –
Cc1ccc(C(=O)NCC(=O)OCC(=O)/C=C2\N(C)c3ccccc3C2(C)C)cc1C | inactive: -19.7% | –
COc1ccc(-c2noc(N3CCC(C(=O)Nc4ccccc4OC)CC3)n2)cc1 | inactive: -23% | –
CC(=O)C1=C(O)C(=O)N(c2ccc(S(N)(=O)=O)cc2)C1c1ccccc1F (stereo unspecified) | – | inconclusive: 1 µM [inhibitor, partial curve]
COC(=O)c1sccc1NC(=O)CSc1ccccc1NS(=O)(=O)c1cc(Cl)ccc1Cl | – | inconclusive: 35.5 µM [inhibitor, single point]
CCOC(=O)c1cc(-c2ccccc2)n(CCCC(=O)Nc2cccc(Cl)c2C)c1C | – | active: 11.2 µM
Cc1ccc(NC(=O)C2(S(=O)(=O)c3ccc(Cl)cc3)CC2)c(Br)c1 | inactive: 1.27% | –
Cc1nc(-c2ccc(F)cc2)sc1CCNC(=O)c1ccco1 | – | inconclusive: 35.5 µM [inhibitor, single point]
COc1ccccc1NC(=O)COC(=O)/C=C/c1ccc(OC)c(OC)c1 | – | inconclusive: 20 µM [inhibitor, single point]
O=C(NCc1ccco1)c1cc(-c2ccccc2)nn1CC1CC(c2cccc([N+](=O)[O-])c2)=NO1 (stereo unspecified) | – | inconclusive: 35.5 µM [inhibitor, single point]
CCCCOCCOC(=O)C1OC1(C)c1ccccc1 (stereo unspecified) | inactive: 8.16% | –
Cc1cc(C)cc(NC(=O)Cn2nnc(C(=O)Nc3cc(C)cc(C)c3)c2N)c1 | – | inconclusive: 12.6 µM [inhibitor, single point]
COC(=O)c1ccccc1NC(=O)N1c2ccccc2Sc2ccccc21 | – | inconclusive: 14.1 µM [inhibitor, partial curve, poor fit]
CC(C)OC(=O)c1cccc(C(=O)OCc2ccco2)n1 | inactive: -12.7% | –
CCS(=O)(=O)N1CC(=O)N(c2cccc(C)c2C)C(C)(C(=O)NC2CCCCC2)C1 (stereo unspecified) | – | inconclusive: 25.1 µM [inhibitor, single point]

SMILES | activity, negative = inhibition | Potency
O=C(CCN1CCCCCC1)Nc1ccc2c(c1)OCCO2 | – | inconclusive: 5.62 µM [inhibitor, single point]
Oc1ccc(/C=N/Nc2nccnc2Cl)c(O)c1 | inactive: 1.69% | –
CCOC(=O)c1[nH]c(C)c(CCC(=O)Nc2ccc(N(CC)CC)cc2C)c1C | inactive: -9.74% | –
CCOC(=O)C1=C(C)Nc2ncnn2C1/C=C/c1ccccc1 (stereo unspecified) | inactive: 3.32% | –
COc1ccccc1N1CCN(C(=O)c2oc3ccc(Br)cc3c2C)CC1 | inactive: -15.8% | –
CCCN(Cc1nnc(-c2ccccc2Cl)o1)C(=O)c1oc2ccccc2c1C | – | inconclusive: 12.6 µM [inhibitor, partial curve, poor fit]
Cc1csc(NC(=O)Cc2coc3cc(C)c(C(C)C)cc23)n1 | – | inconclusive: 22.4 µM [inhibitor, single point]
CCN1CCN(c2nc3c(C)cccn3c(=O)c2/C=C(\C#N)S(=O)(=O)c2ccc(Cl)cc2)CC1 | inactive: -14.9% | –
Cc1ccc(NC(=O)CN2CCc3cc4c(cc3C2)OCCCO4)cc1 | inactive: -9.76% | –
CCc1sc(C(=O)Nc2ccc3c(c2)OCO3)cc1C | – | inconclusive: 11.2 µM [inhibitor, partial curve]
O=C(CC1C[C@H](C(=O)N2CCCCC2)[C@@]2(CCc3ccccc3)c3[nH]c4ccccc4c3CCN2C1=O)NCCc1ccccn1 (stereo partly specified) | – | inconclusive: 1.41 µM [inhibitor, partial curve, poor fit]
COc1ccc(C(=O)N/N=C(\c2ccccc2)c2ccccn2)cc1 | – | inconclusive: 2 µM [inhibitor, full curve, poor fit]
O=C(Cn1cc(C(=O)C(=O)N2CCOCC2)c2ccccc21)Nc1cccc(C(F)(F)F)c1 | – | inconclusive: 28.2 µM [inhibitor, single point]
CCOC(=O)c1ccccc1N1C(=O)CSC1=S | – | inconclusive: 2.82 µM [inhibitor, partial curve, poor fit]
Cc1ccc(NC(=O)c2ccc([N+](=O)[O-])s2)cc1S(=O)(=O)N1CCOCC1 | – | active: 7.08 µM
CC(=O)Oc1c(Br)cc(N(C(C)=O)S(=O)(=O)c2ccccc2)c2ccccc12 | – | active: 8.91 µM
COc1ccc(OC)c(NC(=O)c2ccc3c(c2)c(C)c(C)n3Cc2ccc(F)cc2)c1 | – | inconclusive: 0.112 µM [inhibitor, full curve, poor fit]
Cc1ccc([C@H]2C[C@@H](n3cc(C4CC4)nn3)[C@H](O)CN2C(=O)c2cccs2)cc1 | inactive: 4.63% | –
CCOC(=O)C1=CCN(S(=O)(=O)c2ccccc2F)C1c1ccc(F)cc1 (stereo unspecified) | – | inconclusive: 25.1 µM [inhibitor, single point]
O=C(NCc1cccc(Br)c1)c1cccn1-c1nnc(N2CCCCC2)s1 | – | inconclusive: 17.8 µM [inhibitor, partial curve, poor fit]
CC(CN1CCCCC1)OC(=O)Cc1ccc(Cl)cc1 (stereo unspecified) | inactive: 3.05% | –
CC(C)(C)C(=O)N1CCN(c2ccc(NC(=O)c3ccc([N+](=O)[O-])o3)cc2)CC1 | – | active: 7.08 µM
O=C(NCCCc1ccccc1)C1CCC(=O)N(Cc2ccc(Cl)cc2)C1 (stereo unspecified) | – | inconclusive: 8.91 µM [inhibitor, partial curve]
